Assay results: PMC13065467, “Assembly and phosphoregulatory mechanisms of the budding yeast outer kinetochore KMN complex” (The Journal of Cell Biology, 2026)
No constants are given. Whether binding was seen depends on the method and setting.

Chains of the proteins cited; added tags and fusions are not shown. Lines headed by an entry give the natural chain unless they say otherwise; changes in a name come on top.
UniProt P53148: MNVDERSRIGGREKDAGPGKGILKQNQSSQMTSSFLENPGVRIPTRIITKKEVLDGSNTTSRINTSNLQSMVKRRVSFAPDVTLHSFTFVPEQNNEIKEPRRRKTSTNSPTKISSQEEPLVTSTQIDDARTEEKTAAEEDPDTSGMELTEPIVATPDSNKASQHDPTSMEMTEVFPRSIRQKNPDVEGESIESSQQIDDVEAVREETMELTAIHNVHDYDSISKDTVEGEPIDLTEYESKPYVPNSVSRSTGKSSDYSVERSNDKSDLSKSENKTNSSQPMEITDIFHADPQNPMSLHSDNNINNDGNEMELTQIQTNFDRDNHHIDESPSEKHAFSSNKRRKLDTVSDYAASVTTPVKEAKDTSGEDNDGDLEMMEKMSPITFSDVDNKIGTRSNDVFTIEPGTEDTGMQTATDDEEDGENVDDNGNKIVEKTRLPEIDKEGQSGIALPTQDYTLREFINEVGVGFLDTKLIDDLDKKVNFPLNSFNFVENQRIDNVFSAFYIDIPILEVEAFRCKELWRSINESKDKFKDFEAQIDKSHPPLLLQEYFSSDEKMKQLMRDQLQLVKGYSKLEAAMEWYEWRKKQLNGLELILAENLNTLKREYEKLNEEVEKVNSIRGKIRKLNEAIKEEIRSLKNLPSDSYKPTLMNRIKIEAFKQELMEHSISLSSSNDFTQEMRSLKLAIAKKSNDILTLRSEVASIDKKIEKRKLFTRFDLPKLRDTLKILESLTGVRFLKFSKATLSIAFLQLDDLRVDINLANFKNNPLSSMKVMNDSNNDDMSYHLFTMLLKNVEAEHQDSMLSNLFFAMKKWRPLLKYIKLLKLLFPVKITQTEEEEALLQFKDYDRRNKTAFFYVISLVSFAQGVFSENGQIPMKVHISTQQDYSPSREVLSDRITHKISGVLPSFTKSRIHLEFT
UniProt Q04431: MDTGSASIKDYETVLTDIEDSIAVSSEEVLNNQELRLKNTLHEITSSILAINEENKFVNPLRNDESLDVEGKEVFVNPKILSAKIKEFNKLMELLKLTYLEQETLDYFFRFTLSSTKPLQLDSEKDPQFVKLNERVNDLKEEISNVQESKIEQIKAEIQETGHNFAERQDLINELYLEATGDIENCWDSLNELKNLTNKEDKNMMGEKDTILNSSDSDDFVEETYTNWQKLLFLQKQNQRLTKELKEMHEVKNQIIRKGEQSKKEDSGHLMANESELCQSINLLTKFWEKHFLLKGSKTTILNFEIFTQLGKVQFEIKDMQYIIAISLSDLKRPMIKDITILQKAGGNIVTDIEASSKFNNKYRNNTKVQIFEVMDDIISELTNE
UniProt P40568: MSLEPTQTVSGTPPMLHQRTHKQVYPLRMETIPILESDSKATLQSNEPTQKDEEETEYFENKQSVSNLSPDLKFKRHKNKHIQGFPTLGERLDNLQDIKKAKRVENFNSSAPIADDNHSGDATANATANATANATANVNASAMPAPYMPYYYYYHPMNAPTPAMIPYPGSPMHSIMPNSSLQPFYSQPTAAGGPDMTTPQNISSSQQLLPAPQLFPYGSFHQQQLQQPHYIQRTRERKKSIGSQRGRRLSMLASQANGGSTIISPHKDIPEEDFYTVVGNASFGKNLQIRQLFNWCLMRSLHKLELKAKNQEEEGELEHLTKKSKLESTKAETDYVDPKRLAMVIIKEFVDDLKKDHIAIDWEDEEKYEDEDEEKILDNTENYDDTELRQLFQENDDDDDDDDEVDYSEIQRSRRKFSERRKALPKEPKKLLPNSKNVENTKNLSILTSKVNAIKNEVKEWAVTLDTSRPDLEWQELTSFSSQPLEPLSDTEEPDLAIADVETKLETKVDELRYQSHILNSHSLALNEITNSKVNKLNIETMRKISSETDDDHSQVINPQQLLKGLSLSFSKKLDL
UniProt P39731: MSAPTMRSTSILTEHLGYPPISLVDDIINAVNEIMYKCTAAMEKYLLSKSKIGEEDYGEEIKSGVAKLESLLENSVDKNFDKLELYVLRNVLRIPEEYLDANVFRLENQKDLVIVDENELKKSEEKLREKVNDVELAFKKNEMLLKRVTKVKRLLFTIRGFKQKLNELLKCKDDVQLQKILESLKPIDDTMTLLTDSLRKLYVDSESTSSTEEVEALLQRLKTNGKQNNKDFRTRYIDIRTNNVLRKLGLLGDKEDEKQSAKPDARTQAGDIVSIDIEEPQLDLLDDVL
UniProt P47149: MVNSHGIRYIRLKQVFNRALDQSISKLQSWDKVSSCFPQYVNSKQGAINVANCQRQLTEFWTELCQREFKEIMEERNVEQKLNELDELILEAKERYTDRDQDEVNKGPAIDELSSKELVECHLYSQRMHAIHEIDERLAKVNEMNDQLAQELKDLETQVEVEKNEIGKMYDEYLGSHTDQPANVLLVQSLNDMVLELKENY
UniProt Q12143: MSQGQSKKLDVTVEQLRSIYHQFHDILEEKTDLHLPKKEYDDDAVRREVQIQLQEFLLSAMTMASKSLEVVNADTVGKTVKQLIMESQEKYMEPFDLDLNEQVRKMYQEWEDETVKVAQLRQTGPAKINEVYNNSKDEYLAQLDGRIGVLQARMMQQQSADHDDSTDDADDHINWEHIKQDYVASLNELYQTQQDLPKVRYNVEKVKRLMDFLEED

Legend:
[1] = biological target: Knl1c:Mis12c^Mtw1c complex K^HB-RWDM (Knl1^Spc105_HB-RWD, ZWINT^Kre28, Dsn1, Mis12^Mtw1, Nnf1, Nsl1) (S. cerevisiae) (UniProt P53148+Q04431+P40568+P39731+P47149+Q12143); assay: SEC; 4 μM Knl1c:Mis12c^Mtw1c complex mixed with 4 μM CENP-C^Mif2_1-63 or CENP-QU in KMN buffer, 30 min on ice; Superose 6 3.2/300 in 20 mM HEPES pH 7.5, 150 mM NaCl, 1 mM TCEP; fractions on SDS-PAGE; both purified
[2] = biological target: Knl1c:Mis12c^Mtw1c complex K^HB-RWDM^Dsn1Δ226 (Dsn1 residues 1–226 deleted) (S. cerevisiae) (UniProt P53148+Q04431+P40568+P39731+P47149+Q12143); assay: as above

- binding [1]: no binding (tested: 4 μM of each)
- binding [2]: no binding (tested: 4 μM of each)
B1: CENP-C^Mif2 residues 1–63 (CENP-C^Mif2_1–63) (domain or fragment, S. cerevisiae, UniProt P35201 1-63, looked up)
chain: MDYMKLGLKSRKTGIDVKQDIPKDEYSMENIDDFFKDDETSLISMRRKSRRKSSLFLPSTLNG
notes: CENP-C^Mif2, S. cerevisiae S288c, residues 1-63; source: E. coli BL-21 CodonPlus-RIL, purified (HisTrap, Ulp1 cleavage, reverse IMAC, Resource S, SEC); not shown: 6xHis-SUMO, N-terminal, cleaved
